Measurements from the supplement of paper PMC6451100.
This is one part of the list. Read counts after selection give these values, which scatter widely.

Biological target: T1, Drosophila AGO2 (FLAG-tagged, S2-R+ lysate) (UniProt Q9VUQ5)
T1 sequence: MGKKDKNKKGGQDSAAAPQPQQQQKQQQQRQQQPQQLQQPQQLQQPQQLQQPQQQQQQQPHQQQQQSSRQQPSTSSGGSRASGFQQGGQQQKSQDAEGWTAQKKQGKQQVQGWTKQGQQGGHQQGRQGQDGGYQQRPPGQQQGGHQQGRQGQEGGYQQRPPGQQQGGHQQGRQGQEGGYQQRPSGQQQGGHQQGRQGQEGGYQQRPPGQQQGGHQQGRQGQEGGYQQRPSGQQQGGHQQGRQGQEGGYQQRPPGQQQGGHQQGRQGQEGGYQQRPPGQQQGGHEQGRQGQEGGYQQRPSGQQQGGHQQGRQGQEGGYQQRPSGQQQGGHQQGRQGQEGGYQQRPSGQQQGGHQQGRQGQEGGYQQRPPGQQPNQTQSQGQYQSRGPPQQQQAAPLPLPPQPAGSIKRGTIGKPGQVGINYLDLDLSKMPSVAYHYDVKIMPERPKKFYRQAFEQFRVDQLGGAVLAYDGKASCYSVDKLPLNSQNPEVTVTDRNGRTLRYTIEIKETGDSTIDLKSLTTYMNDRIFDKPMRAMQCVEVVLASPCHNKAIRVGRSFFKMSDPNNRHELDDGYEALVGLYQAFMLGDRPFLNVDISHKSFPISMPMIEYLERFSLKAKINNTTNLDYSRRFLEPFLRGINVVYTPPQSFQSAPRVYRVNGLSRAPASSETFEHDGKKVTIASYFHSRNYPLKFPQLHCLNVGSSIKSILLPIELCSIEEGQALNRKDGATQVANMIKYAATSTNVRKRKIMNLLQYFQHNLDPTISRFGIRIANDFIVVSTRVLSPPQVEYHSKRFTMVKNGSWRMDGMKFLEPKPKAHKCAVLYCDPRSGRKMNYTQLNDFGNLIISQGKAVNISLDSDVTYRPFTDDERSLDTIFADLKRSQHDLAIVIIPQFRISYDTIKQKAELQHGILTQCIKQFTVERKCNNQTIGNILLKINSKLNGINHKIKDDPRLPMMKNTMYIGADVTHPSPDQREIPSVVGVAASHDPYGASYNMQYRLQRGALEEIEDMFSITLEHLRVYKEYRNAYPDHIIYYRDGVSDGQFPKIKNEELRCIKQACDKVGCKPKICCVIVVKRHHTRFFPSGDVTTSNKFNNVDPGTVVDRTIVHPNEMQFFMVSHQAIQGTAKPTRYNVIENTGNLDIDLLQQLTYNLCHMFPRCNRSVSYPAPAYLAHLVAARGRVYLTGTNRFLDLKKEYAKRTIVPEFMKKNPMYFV
Experiment: AGO2 loading enrichment factor (IP read count / input read count, not library-size normalised) (ratio); higher = more efficient loading into AGO2
Settings: randomized region: 5' 5N of miR-317 loop
Protocol: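 HISSA: 5'-phosphorylated, 32P-labelled 20-nt ssRNA oligos (miR-317 loop, first 5 nt randomized, constant 3' part TGAAATGCAAGCAAG as printed in methods; DNA letters for RNA) incubated 1 h at 25°C in lysate of S2-R+ cells expressing FLAG-AGO2. FLAG-AGO2 was immunopurified and bound oligos were sequenced after splinted ligation. Enrichment factor = IP read count / input read count (raw counts, not library-size normalised); single library, no replicates.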
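Also: Per-sequence enrichment computed with FASTAptamer, counting only reads that carry the expected constant 3′ region.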

Row | Sequence | AGO2 loading enrichment factor
1 | GTTTTTGAAATGCAAGCAAG | 0.366
2 | CTCTATGAAATGCAAGCAAG | 0.466
3 | ACGGTTGAAATGCAAGCAAG | 0.439
4 | TCGGTTGAAATGCAAGCAAG | 0.505
5 | AGAAATGAAATGCAAGCAAG | 0.455
6 | TCGGATGAAATGCAAGCAAG | 0.923
7 | TGCGCTGAAATGCAAGCAAG | 0.161
8 | CACGGTGAAATGCAAGCAAG | 0.458
9 | AGGAGTGAAATGCAAGCAAG | 2.25
10 | GGCCTTGAAATGCAAGCAAG | 0.232
11 | CGCGCTGAAATGCAAGCAAG | 0.114
12 | TTGCCTGAAATGCAAGCAAG | 0.32
13 | TTGCATGAAATGCAAGCAAG | 0.132
14 | CATGGTGAAATGCAAGCAAG | 0.348
15 | GAGCCTGAAATGCAAGCAAG | 0.263
16 | TAACATGAAATGCAAGCAAG | 0.362
17 | AGAAGTGAAATGCAAGCAAG | 0.468
18 | CTTTCTGAAATGCAAGCAAG | 0.0488
19 | TGTAGTGAAATGCAAGCAAG | 0.272
20 | TAGCATGAAATGCAAGCAAG | 0.221
21 | GATCGTGAAATGCAAGCAAG | 0.655
22 | CGGGCTGAAATGCAAGCAAG | 0.278
23 | ACGCATGAAATGCAAGCAAG | 0.223
24 | TTATATGAAATGCAAGCAAG | 0.644
25 | TGGCGTGAAATGCAAGCAAG | 0.547

Row | Sequence | AGO2 loading enrichment factor
26 | TCTGCTGAAATGCAAGCAAG | 0.587
27 | AAGTTTGAAATGCAAGCAAG | 0.163
28 | CTGCTTGAAATGCAAGCAAG | 1.78
29 | AGACGTGAAATGCAAGCAAG | 0.425
30 | TCAATTGAAATGCAAGCAAG | 0.438
31 | AAGCGTGAAATGCAAGCAAG | 0.328
32 | GGTAATGAAATGCAAGCAAG | 0.581
33 | CGGAGTGAAATGCAAGCAAG | 1.64
34 | ACTGCTGAAATGCAAGCAAG | 0.149
35 | AACCCTGAAATGCAAGCAAG | 0.373
36 | AAAACTGAAATGCAAGCAAG | 0.371
37 | GACACTGAAATGCAAGCAAG | 0.42
38 | GTACCTGAAATGCAAGCAAG | 0.392
39 | AATATTGAAATGCAAGCAAG | 0.344
40 | CTCGATGAAATGCAAGCAAG | 0.485
41 | AAACATGAAATGCAAGCAAG | 0.415
42 | CGGAATGAAATGCAAGCAAG | 0.62
43 | GACCCTGAAATGCAAGCAAG | 0.815
44 | GAGATTGAAATGCAAGCAAG | 0.566
45 | ATGAGTGAAATGCAAGCAAG | 0.628
46 | CCCGATGAAATGCAAGCAAG | 0.37
47 | GGCGTTGAAATGCAAGCAAG | 0.55
48 | ACTGTTGAAATGCAAGCAAG | 0.255
49 | GGTTTTGAAATGCAAGCAAG | 0.559
